The supplement of paper PMC7125110
± gives the standard error. Variants at the background level are over-represented here.

B1: glmS ribozyme (parent)
chain: AUAAAAGCGCCAGAACUACAGAAAUGUAGUUGACGAGGAGGAGGUUUAUCGAAUUUUCGGCGGAUGCCUCCAAA

Variants of: B1
Experiment: self-cleavage kobs at 2500 uM GlcN6P; higher = faster cleavage; RNA array
Conditions: with glucosamine-6-phosphate
Outline: (§1)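 Sequenced MiSeq chips were the platform: E. coli RNA polymerase transcribed barcoded ribozyme variants on them in situ, and a hybridised Cy3 probe tracked these at 37 °C. After glucosamine-6-phosphate (40 μM to 10 mM) in HEPES/KCl/Mg(OAc)2 buffer was flowed in, tiles were imaged over ~14 h. Signals normalised to baseline and to non-cleaving reference variants were reduced to per-tile medians and fit to one- or two-exponential decays to obtain kobs. kcat and KM were derived through weighted Michaelis–Menten fits across concentrations.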

self-cleavage kobs at 2500 uM GlcN6P, 7.2e-05 ± 2.9e-05 s⁻¹:
A6G C11G U69G

self-cleavage kobs at 2500 uM GlcN6P, 0.00726 ± 0.0019 s⁻¹:
U2C A53C

self-cleavage kobs at 2500 uM GlcN6P, 3.63e-05 ± 9.6e-06 s⁻¹:
C68A C71G

self-cleavage kobs at 2500 uM GlcN6P, 3.22e-05 ± 1.3e-05 s⁻¹:
A6U C71A

self-cleavage kobs at 2500 uM GlcN6P, 2.28e-05 ± 1e-05 s⁻¹:
A6U C16G

self-cleavage kobs at 2500 uM GlcN6P, 0.000457 ± 0.00011 s⁻¹:
C8G A33G A52G A53G C68A U69G

self-cleavage kobs at 2500 uM GlcN6P, < 1e-05 s⁻¹:
A6G U31C A42G G62C
A6U C8G G44C A53G
A6C G7U U45A
G7A G38U G41U
G7U A33U C34A A39G G51A A53U C71U
C8A G40C A48C G51C G59C
C8A A36G A53G
C8A G38A G63U C68U
U46A G62C C67U
G7A G9C A33U G38U A53U C68A
C8A G32U A48C
A6G U54C C70A
C8G G9U G29U C71U
A6U G29C G40C G44U C50G
G7U C10G C11A U56A
G7A A15G U31C C34U C50U U54A G59U
G7U U55A U56A
A6U A14C U45A A48G G66U
G43C A52U C61A
A6U C16A C58U
A42C A52G
C8A G13A G32C
C8G C16A G60U
A42C G43C C68A C71A
A6U C10U C11U G44A
A6C G13U C67U
A6C G32C A39U C61G
A6U A14U U31C A42G A52C A64C
C8G A14G A39C G44A
A6G G32U A53G U54G
G7U C8G C16G G59A
C8G A48U A53U
G7C C11U G60U
A6C C11A U31A C58A
A6U G32U U57G
G7U G60A C67U C70U A73U
A6C A39G G51C
G38U A52G
G7U G9U U56A G59U
G7U A14U C16G A33U
G7C G9U U54A
A6C G9A U46A U57A
C8A G21U U31C G32C G35U
A6C G29C A52U C70U
G7A C11A A12U G32A G60A C61G
C8A A36C G37A U46A A52U
G7C C8A G9A C10G A12G A33C U57G
A6U G40U C68U
A6G U54C G59C
G7A G43U G51C
A39U G41C A52G
G7U G13A U30G
A39G C58U G60U
C8G G9U G44A G51C
G41U G44U C58U G59A G66U C67G
A6U A15G G35U A36C U69C
A1C C11A C16G A64U
A6C C8U A12G U47A
A6G C11G U45A C50A
A6U G35U G51U
A6G C10G U30A G32U U56G
A48G A52C G59C
C8G A64U C70U
A6U G35C G37U A39G
G44A A48G G51U G59A
A6G C10G U31A
A6U A15U U46G G59A
C8A C58U A64U C67G
A6C G35A G51U C68G
G7U C58G G66C
A6G A42C G62U A64U C68A
A6C G9U C70A
G7A A48G C70U
G7A A12G G60U G63U
C8A A33C U65G
G7U G40U G41C U49A G66C
G7U C11U A53U U55C
C8A G43A C61U
G7C A33U U47G
A6C A12U U30A G41C U49G
C8A A39U G44C
C8G A12U A14C A48U A64C C70U
C8A G9A C71G
G7A A33G G44U G66U
C8A U55C C70A
A6U G7A G60U G62U U65G
C8G C10U C11U G13A C34G
A6U G7U A36U A42U C58U A64U
A6C U65C C68G
G7U G29A A33U G63U
G7C G41U G59U
G7U G63C A64G
G43U A48U U49A
G7U G9C U47A U56G G59U C70A
G7A G9C A36C
A6U G40U A48C
A6C U30A G41A G44C A48U
A6G G59C G63U
A6G G13C G37A C68A
C8A G40C U47A A64U
A6U U30C G40C
C8G A42U U49C A52G
G7C U30G G32U A64G
A6U G29C G63A
A6G G43A G51U
G7C G38A A52C G60C
C8A G9U C67U
G7U G40A U47C
C8A C11G A53G
A6C A64C C67U
A6U G13A G35A G66C
C8A G37U C58U
A6U A14C G32C G41A
C8A A39C G41C C58U C68U
A6U A14U G32U G41C A42C G43C C58A
G7A C8A U56G
A6C G37C U49G C70U
A6U C10A A48G C58G
G7C U45G A48U C67A
U47G G62C
G7A C10U G35U G43U
A6C G13U U46G

self-cleavage kobs at 2500 uM GlcN6P, 8.04e-05 ± 1.4e-05 s⁻¹:
A6G G38A C50G U57G C68U

self-cleavage kobs at 2500 uM GlcN6P, 0.000117 ± 2.9e-05 s⁻¹:
A6G A14U U54A

Variants of: B1
Experiment: self-cleavage kobs at 10000 uM GlcN6P; higher = faster cleavage; RNA array
Conditions: with glucosamine-6-phosphate
Outline: as §1

self-cleavage kobs at 10000 uM GlcN6P, 3.87e-05 ± 6.9e-06 s⁻¹:
A6U C16G

self-cleavage kobs at 10000 uM GlcN6P, 1.62e-05 ± 7.9e-06 s⁻¹:
A42U A52G

self-cleavage kobs at 10000 uM GlcN6P, 4.63e-05 ± 1.1e-05 s⁻¹:
A6U C71A

self-cleavage kobs at 10000 uM GlcN6P, 3.47e-05 ± 1.2e-05 s⁻¹:
A48G C67A

self-cleavage kobs at 10000 uM GlcN6P, < 1e-05 s⁻¹:
A6G U31C A42G G62C
G43C A52U C61A
C8G A48U A53U
C50A A64C
A6C G9A U46A U57A
A6C G9U C70A
A52C A53G G62C
G7C A33U U47G
C8G C10U C11U G13A C34G
G44A G51U
U47G G62C

Variants of: B1
Experiment: self-cleavage kobs at 160 uM GlcN6P; higher = faster cleavage; RNA array
Conditions: with glucosamine-6-phosphate
Outline: as §1

self-cleavage kobs at 160 uM GlcN6P, < 1e-05 s⁻¹:
U55C C68U
U46A G62C C67U
A42U C50U C67U
G43C A52U C61A
U45C U57A
A42C A52G
A42C G43C C68A C71A
G41U A48U
G43U A53U
G38U A52G
G41C A52G G63U
C50A A64C
C50A A64G
C58U C71A
G40A U55C C67A
G41C A52C C68U
U47C C61U G63C C70U
A39C G44A C70G
A39U G41C A52G
A39G C58U G60U
G41U G44U C58U G59A G66U C67G
U57G G59U A64U
A48G C67A
A48G A52C G59C
G44A A48G G51U G59A
A52C A53G G62C
G43U A48U U49A
U45A C68G
A42U A52G
G40U A42C G62C
G44A G51U
G41U A52U U57C
G43C U55A A64U
U47G G62C

self-cleavage kobs at 160 uM GlcN6P, 3.29e-05 ± 1e-05 s⁻¹:
C68A C71G

self-cleavage kobs at 160 uM GlcN6P, 5.66e-05 ± 2.2e-05 s⁻¹:
C50G G66A

self-cleavage kobs at 160 uM GlcN6P, 3.64e-05 ± 1.6e-05 s⁻¹:
G51U U55G C58G C61G
